Experimental data as given in PubChem BioAssay AID1347165 (National Center for Advancing Translational Sciences (NCATS), 2019).
The whole screen tested about 220,000 compounds, of which about 5,700 (2.6%) were called active. The inconclusive results got no clear call from the source; some entries with a clear call stand among them for comparison. Calls come from the whole dose curve; as a rule, active = well fitted inhibition curve with a large enough effect; inconclusive = small, poorly fitted or top-dose-only effect; inactive = no such curve, though single readings can be large or run the other way. Where the call is inconclusive, the potency comes from a doubtful curve fit.

What follows are molecules tested against Lysine-specific demethylase 5B (Homo sapiens) (UniProt Q9UGL1) (assay: Primary screen for KDM5B Histone Demethylases FDH-coupled qHTS). Details: FDH-coupled NADH fluorescence (FDH is formaldehyde dehydrogenase); activity change, negative = inhibition: at 57.7 µM (top of the series) unless noted.
UniProt Q9UGL1, sequence (Q9UGL1 whole entry, looked up, the tested form may be a part): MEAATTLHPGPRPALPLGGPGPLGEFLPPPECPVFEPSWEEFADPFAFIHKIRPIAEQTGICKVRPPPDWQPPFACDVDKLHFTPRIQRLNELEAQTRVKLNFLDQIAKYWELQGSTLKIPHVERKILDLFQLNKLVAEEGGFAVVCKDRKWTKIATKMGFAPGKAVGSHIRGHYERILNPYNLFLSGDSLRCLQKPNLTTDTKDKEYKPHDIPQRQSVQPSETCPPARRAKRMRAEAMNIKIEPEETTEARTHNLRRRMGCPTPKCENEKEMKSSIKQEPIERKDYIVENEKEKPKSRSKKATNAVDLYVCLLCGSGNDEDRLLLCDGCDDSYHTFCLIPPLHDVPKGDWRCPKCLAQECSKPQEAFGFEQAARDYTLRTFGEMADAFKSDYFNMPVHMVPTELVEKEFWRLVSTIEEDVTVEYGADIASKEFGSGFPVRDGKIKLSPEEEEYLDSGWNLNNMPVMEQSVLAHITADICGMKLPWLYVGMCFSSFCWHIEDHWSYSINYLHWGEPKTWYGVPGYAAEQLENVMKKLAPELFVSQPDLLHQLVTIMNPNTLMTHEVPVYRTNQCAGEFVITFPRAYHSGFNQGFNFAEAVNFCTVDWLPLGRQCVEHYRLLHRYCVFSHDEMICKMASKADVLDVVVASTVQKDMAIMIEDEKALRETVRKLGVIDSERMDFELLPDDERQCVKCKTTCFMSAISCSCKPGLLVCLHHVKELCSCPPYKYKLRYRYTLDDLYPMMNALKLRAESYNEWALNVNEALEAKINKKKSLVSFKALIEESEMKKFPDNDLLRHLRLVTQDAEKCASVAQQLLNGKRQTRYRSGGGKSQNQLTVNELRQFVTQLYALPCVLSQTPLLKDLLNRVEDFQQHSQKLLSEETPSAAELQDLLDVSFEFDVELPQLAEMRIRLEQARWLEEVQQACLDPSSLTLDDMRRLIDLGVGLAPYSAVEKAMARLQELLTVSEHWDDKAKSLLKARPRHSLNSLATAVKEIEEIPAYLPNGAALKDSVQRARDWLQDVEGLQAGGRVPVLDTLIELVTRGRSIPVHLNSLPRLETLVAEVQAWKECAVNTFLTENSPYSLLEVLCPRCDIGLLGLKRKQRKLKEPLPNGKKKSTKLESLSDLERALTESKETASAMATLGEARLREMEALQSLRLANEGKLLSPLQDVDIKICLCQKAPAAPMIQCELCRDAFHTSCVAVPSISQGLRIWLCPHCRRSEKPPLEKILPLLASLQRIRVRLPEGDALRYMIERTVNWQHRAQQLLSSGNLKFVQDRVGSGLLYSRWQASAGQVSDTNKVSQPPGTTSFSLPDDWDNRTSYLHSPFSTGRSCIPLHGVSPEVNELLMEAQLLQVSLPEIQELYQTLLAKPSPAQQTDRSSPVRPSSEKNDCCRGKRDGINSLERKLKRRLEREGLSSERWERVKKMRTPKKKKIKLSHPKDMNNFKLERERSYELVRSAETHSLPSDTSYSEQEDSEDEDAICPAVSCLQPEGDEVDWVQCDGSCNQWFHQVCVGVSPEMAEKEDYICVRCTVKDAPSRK
In short: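 Inhibition is measured as reduced NADH fluorescence generation from FDH coupling to formaldehyde release. Truncated KDM5BΔAP at 200 nM final acts on H3K4me3 peptide (12.5 µM in substrate mix) in pH 7.5 HEPES buffer with Tween-20, 30 min, room temperature.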
Note: nearly all actives have a fitted effect of over 70% in size.
Potency is the fitted concentration of half-maximal effect; tags give direction and shape of the fitted curve.
Throughout, for activity change, negative = inhibition: 0% is about no effect.

Structure (SMILES)	Potency	activity change, negative = inhibition
CCOc1ccc(-c2c(C(=O)N/N=C/c3ccc(C)cc3)nnn2-c2nonc2N)cc1	inconclusive: 25.1 µM [inhibitor, single point]	–
COc1cc(SSc2cc(OC)cc([N+](=O)[O-])c2N)c(N)c([N+](=O)[O-])c1	inconclusive: 2.51 µM [inhibitor, full curve, poor fit]	–
Cn1nccc1C(=O)N1CCN(Cc2ccc(=O)n(CC3CC3)c2)CC1	inconclusive: 7.94 µM [inhibitor, partial curve]	–
COC(=O)COc1ccc2oc(C)c(C(=O)OC)c2c1	–	inactive: -9.34%
O=C(NCc1ccc(C(F)(F)F)cc1)C1CCCN(c2nc3ncccc3o2)C1 (stereo not drawn)	inconclusive: 10 µM [inhibitor, partial curve]	–
COc1ccccc1CNC(=O)CCC1N=C2c3ccccc3N=C(SCC(N)=O)N2C1=O (stereo not drawn)	–	inconclusive: -30.1% [inhibitor]
CC1(C)C(=O)N(Cc2ccccc2)[C@H]2CN(Cc3ccncc3)C[C@H]2[S+]1(=O)[O-]	–	inactive: -12.1% [at 86.2 µM]
COC1CCC12CCN(C(=O)c1cnn(C)c1)CC2 (stereo not drawn)	–	inactive: -8.04%
COCCNc1cc(-c2noc([C@@H]3CCCN3Cc3ccccn3)n2)ccn1	active: 31.6 µM	–
CN(C)c1ccc(-c2nc(C3CC(=O)N(c4ccc(Cl)cc4)C3)no2)cc1 (stereo not drawn)	active: 3.98 µM	–
COc1cc(C2NC(=O)N(C)C3=C2C(=O)N(c2cccc(Cl)c2)C3)ccc1O (stereo not drawn)	inconclusive: 25.1 µM [inhibitor, partial curve, poor fit]	–
Cc1nn2c(c1-c1ccccc1-c1ccccc1)N(Cc1ccccc1)CCC2	active: 31.6 µM	–
CCc1cc(=O)oc2cc(OC(C)C(=O)NC3CCCCCC3)ccc12 (stereo not drawn)	inconclusive: 22.4 µM [inhibitor, partial curve, poor fit]	–
COc1ccc(C)cc1NC(=O)c1nc2ccccc2nc1N1CCCC1	–	inactive: -13.2%
CCOc1ccc2[nH]c3c(NCCO)ncnc3c2c1	inconclusive: 25.1 µM [inhibitor, partial curve, poor fit]	–
O=C(O)c1ccc(C2CCCN(C(=O)c3cccc(N4CCOCC4)c3)C2)cc1 (stereo not drawn)	–	inactive: -15.5%
COCCN1C(=O)c2cccn2CC1CNC(=O)c1cc2ccccc2[nH]1 (stereo not drawn)	active: 28.2 µM	–
CC1CCN(C(=O)c2cc3c(=O)n(C)c4ccccc4c3s2)CC1	inconclusive: 28.2 µM [inhibitor, partial curve, poor fit]	–
CCOCC(=O)N1CCc2nc(N3CCN(C)CC3)sc2C1	inconclusive: 15.8 µM [inhibitor, partial curve]	–
c1ccc(Nc2cc3c(cn2)NCCN(Cc2ccc4[nH]ccc4c2)C3)cc1	active: 31.6 µM	–
COc1ccccc1NC(=O)C1=C(C)Nc2nc(SCc3ccc(Cl)cc3)nn2C1c1ccccc1Cl (stereo not drawn)	inconclusive: 3.98 µM [inhibitor, partial curve, poor fit]	–

Structure (SMILES)	Potency	activity change, negative = inhibition
CCOc1ccccc1CN1CCN(c2cccc(C#N)n2)CC1CCO (stereo not drawn)	inconclusive: 25.1 µM [inhibitor, partial curve, poor fit]	–
O=C(c1c[nH]c2ccccc12)N1CCN(c2cc(-c3cccs3)[nH]n2)CC1	inconclusive: 31.6 µM [inhibitor, partial curve, poor fit]	–
O=C1CN(Cc2ccc(-c3ccccc3)cc2)CCN1c1cc(Cl)ncn1	inconclusive: 25.1 µM [inhibitor, single point]	–
O=C(CSc1nnnn1-c1ccc(C(=O)O)cc1)Nc1ccccc1	–	inactive: 1.61%
CCc1ccc(NCc2cc3ccc(OC)cc3n(CC(=O)Nc3ccc(C(C)C)cc3)c2=O)cc1	inconclusive: 2.51 µM [inhibitor, partial curve, poor fit]	–
COc1ccc(-c2csc(-c3c(C)c(C)nn(C)c3=O)n2)cc1OC	–	inactive: -7.36%
Cc1ccc(N2Cc3c(NCCCc4ccccc4)ncnc3N(C)CC2=O)cc1	inconclusive: 14.1 µM [inhibitor, partial curve]	–
Cc1ccc(Nc2c(-c3ccsc3)nc3cccc(C)n23)cc1	inconclusive: 31.6 µM [inhibitor, partial curve, poor fit]	–
O=C(Cc1ccccc1)NC[C@H]1Cn2c(-c3ccc4c(c3)OCO4)cnc2CO1	inconclusive: 35.5 µM [inhibitor, single point]	–
O=C(NCCCn1ccnc1)c1ccc(S(=O)(=O)Nc2ccccc2)cc1	–	inactive: 25.1%
CN(C)S(=O)(=O)c1ccc(Cl)c(C(=O)Nc2cc(Cl)cc3cccnc23)c1	inconclusive: 28.2 µM [inhibitor, partial curve, poor fit]	–
CCOc1ccccc1CNC(=O)c1ccc(-c2nc(CSc3ccc(C)cc3)c(C)o2)cc1	inconclusive: 28.2 µM [inhibitor, partial curve, poor fit]	–
Oc1cccc(-c2cc(C3=CCOCC3)c3cncn3c2)c1	inconclusive: 35.5 µM [inhibitor, partial curve, poor fit]	–
Cc1noc(C)c1-c1cc2cc(C(C)C)oc2c(-c2ccnn2C)n1	inconclusive: 31.6 µM [inhibitor, single point]	–
Cc1cc(C)n(-c2cccc(CN3CCN(C4CCNC4)CC3)c2)n1 (stereo not drawn)	inconclusive: 31.6 µM [inhibitor, partial curve, poor fit]	–
O=C(Nc1cccc(F)c1)N1CCCC2(C1)Nc1cccnc1NC2=NCc1ccccc1 (stereo not drawn)	inconclusive: 28.2 µM [inhibitor, partial curve, poor fit]	–
Cc1nc(N2CCN(c3ccccn3)CC2)c2c(C)c(C(=O)Nc3ccccc3F)sc2n1	inconclusive: 31.6 µM [inhibitor, partial curve, poor fit]	–
c1ccc(CN2CCCCC2c2nc(CCOCC3CCCC3)no2)nc1 (stereo not drawn)	inconclusive: 22.4 µM [inhibitor, partial curve, poor fit]	–
COc1ccccc1CNc1nc2ccccc2nc1NS(=O)(=O)c1cc(C)ccc1C	inconclusive: 1.58 µM [inhibitor, partial curve, poor fit]	–
Cc1c(NC(=O)CC(C)C)cccc1-c1nc2cccnc2s1	inconclusive: 28.2 µM [inhibitor, partial curve, poor fit]	–
COc1ccc(/C=C\C(=O)NC2CC(=O)N(c3ccc(F)cc3)C2)cc1OC (stereo not drawn)	inconclusive: 28.2 µM [inhibitor, partial curve, poor fit]	–

Structure (SMILES)	Potency	activity change, negative = inhibition
C(=Nc1ccc(Nc2ccccc2)cc1)c1ccc(OCc2ccccc2)cc1	inconclusive: 11.2 µM [inhibitor, partial curve, poor fit]	–
COc1cccc(-n2cc(CN(C)c3ncncn3)cn2)c1	–	inactive: 25.7%
CC(C)n1ccnc1C1CCCN(Cc2cscn2)C1 (stereo not drawn)	inconclusive: 8.91 µM [inhibitor, partial curve]	–
O=C(Nc1oc2ccccc2c(=O)c1-c1ccc(Cl)cc1)c1ccccc1	–	inactive: -4.39%
COc1cc(C#N)ccc1OCc1csc(-c2cccc(OC)c2OC)n1	inconclusive: 22.4 µM [inhibitor, partial curve, poor fit]	–
COCc1ccccc1CNC(=O)c1nccnc1N	inconclusive: 22.4 µM [inhibitor, partial curve, poor fit]	–
Cc1ccc(-c2nc3c(cnn3-c3ccccc3)c(=O)n2-c2cccc(Cl)c2)cc1	inconclusive: 28.2 µM [inhibitor, partial curve, poor fit]	–
CN(C)S(=O)(=O)c1ccc2c(c1)N(CC(=O)N1CCN(c3cccc(Cl)c3)CC1)CCS2	inconclusive: 2.82 µM [inhibitor, partial curve, poor fit]	–
COc1cc(OC)c(N(C)C(=O)C2CCCN(c3ncnc4c3nc3n4CCCCC3)C2)cc1Cl (stereo not drawn)	–	inconclusive: -33% [inhibitor] [at 11.5 µM]
O=C(CN1CC2CC(C1)[C@H]1CCCC(=O)N1C2)NCCCN1CCCCCC1 (stereo partly drawn)	inconclusive: 28.2 µM [inhibitor, single point]	–
O=S(=O)(Cc1ccccc1)N[C@H]1CO[C@H]2[C@@H]1OC[C@@H]2n1cc(-c2ccccn2)nn1	inconclusive: 22.4 µM [inhibitor, partial curve, poor fit]	–
Cn1c(=O)c2c(nc(SCC(=O)NCc3ccc(F)cc3)n2Cc2ccccc2F)n(C)c1=O	–	inactive: 15.8%
O=C(c1nnc(CNc2ccccc2)n1-c1ccccc1)N1CCC[C@@H]1C(c1ccccc1)c1ccccc1	inconclusive: 22.4 µM [inhibitor, single point]	–
CCN1c2cc(C(=O)NCc3cc(F)cc(F)c3)ccc2C(=O)N2CCCCCC21 (stereo not drawn)	inconclusive: 25.1 µM [inhibitor, partial curve, poor fit]	–
CN(C)S(=O)(=O)c1ccc(NC(=O)COc2ncnc3ccc(Br)cc23)cc1	–	inactive: -14.8%
Cc1nc2ncccn2c1C(=O)N1C[C@H]2C(=O)NC[C@@]2(C(=O)O)C1	active: 28.2 µM	–
COc1ccc(Nc2cc(C)nc(Nc3ccc(NC(=O)CCc4ccccc4)cc3)n2)cc1	inconclusive: 39.8 µM [inhibitor, single point]	–
CCc1ccc(C2=C(C)C(N3CCC(C(=O)Nc4ccc(OC)c(OC)c4)CC3)=NS2(=O)=O)cc1	–	inactive: 9.86%
Cc1ccc(S(=O)(=O)n2nc(C)c(S(=O)(=O)N3CCC(C)CC3)c2C)cc1	inconclusive: 35.5 µM [inhibitor, single point]	–
COc1ccc2c(CNc3ccccc3)cc(=O)oc2c1	inconclusive: 25.1 µM [inhibitor, partial curve, poor fit]	–
O=C1CN(C(=O)Cn2cnc3c(Cl)cc(Cl)cc3c2=O)c2ccccc2N1	–	inactive: -12.5%
